Data from the supplement of paper PMC12217912.
The other results are listed elsewhere or left out. The full chains were built here from the parent and the listed change. Inactive controls read about 0.05.

B1: TEV protease; numbered along this chain (parent)
chain: MGESLFKGPRDYNPISSSICHLTNESDGHTTSLYGIGFGPFIITNKHLFRRNNGTLVVQSLHGVFKVKDTTTLQQHLVDGRDMIIIRMPKDFPPFPQKLKFREPQREERICLVTTNFQTKSMSSMVSDTSCTFPSGDGIFWKHWIQTKDGQCGSPLVSTRDGFIVGIHSASNFTNTNNYFTSVPKNFMELLTNQEAQQWVSGWRLNADSVLWGGHKVFMVKPEEPFQPVKEATQL

Variants of: B1
Assay: raw area under fraction-flipped curve 0-4 h after induction (AUC4h, not background-subtracted), DNA-recorder readout of cleavage of the substrate (dimensionless); higher = more cleavage of the substrate by the protease variant
Conditions: temperature: 34 °C; time window: 0-4 h after rhamnose induction
Description: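 In vivo DNA recorder in E. coli TOP10(DE3) ΔrhaA at 34 °C. Each TEVp single-site mutant (parent TEVp 0) is paired with a single-site variant of the 7-mer TEVs (canonical ENLYFQ|S). The substrate sits between flexible linkers in a Bxb1-sfGFP-TEVs-SsrA fusion, so cleavage stabilises Bxb1 and speeds flipping of a recombination array, read by NGS. The value is the raw area under the fraction-flipped curve over 0-4 h after rhamnose induction (AUC4h), with ≥20 reads per time point. It is not background-subtracted; inactive controls average about 0.047.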
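Also: Bxb1 expression induced with 0.2% (w/v) L-rhamnose at OD600 near 0.5, cultures sampled hourly, flipped fraction per protease–substrate barcode pair counted by paired-end Illumina sequencing.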

Variant	area with substrate ENAYFQS	area with substrate ENCYFQS	area with substrate ENDYFQS	area with substrate ENEYFQS	area with substrate ENHYFQS	area with substrate ENIYFQS	area with substrate ENPYFQS	area with substrate ENQYFQS	area with substrate ENRYFQS	area with substrate ENSYFQS	area with substrate ENVYFQS	area with substrate ENWYFQS	area with substrate ENGYFQS	area with substrate ENNYFQS	area with substrate ENTYFQS	area with substrate ENMYFQS	area with substrate ENFYFQS	area with substrate ENKYFQS	area with substrate ENYYFQS
D91V	0.0736	0.0412	0.0611	0.0775	0.0567	0.107	0.0553	0.0538	0.0778	0.0487	0.0751	0.0658							
M83Q	0.0551	0.0675	0.065	0.055	0.0614		0.0575	0.0597	0.0529	0.0533	0.0611		0.0586	0.0441	0.0659				
M83V	0.0465					0.0833	0.0582		0.0721			0.0536		0.0619	0.0702	0.0619			
R102K	0.0504	0.081	0.0575	0.0628		0.115		0.0587		0.0526	0.0898			0.0496			0.119	0.052	
T71I	0.064	0.0855	0.0633	0.065	0.062	0.114				0.0661					0.0584	0.0421	0.0423	0.0654	
T71D	0.0511		0.0628	0.0603						0.0644			0.0649	0.0825	0.0569	0.0551	0.0614	0.0447	
T71H	0.0665		0.0585			0.0879	0.0444	0.0522						0.0611	0.0523		0.0528		
R109F	0.0572	0.0665	0.0654	0.0456	0.0743			0.0578	0.0438	0.0631	0.0613		0.0684		0.0577	0.0796	0.0526	0.059	
P104E	0.0507	0.0953		0.0528	0.0487		0.0435	0.05	0.0552	0.0579	0.0512		0.0523	0.0532		0.0487			
P104Q	0.0475	0.0582							0.0538	0.0606	0.0548			0.0506	0.0416			0.0613	0.0445
P93H	0.0425		0.0477	0.0652				0.0523											
P93N	0.0501										0.0616						0.0662		
P93Y	0.0657			0.0658					0.0662		0.0746	0.0088				0.0645			0.0579
P93R	0.0686				0.0367		0.0615		0.0673	0.0552								0.0861	
D82I	0.0462	0.065		0.0492					0.0509		0.0506			0.0524					0.0576
I85G	0.0557	0.0405	0.0486	0.0532			0.0539	0.0485		0.0444		0.0389		0.0534	0.0481			0.0735	0.0551

Variant	area with substrate ENAYFQS	area with substrate ENCYFQS	area with substrate ENDYFQS	area with substrate ENEYFQS	area with substrate ENHYFQS	area with substrate ENIYFQS	area with substrate ENPYFQS	area with substrate ENQYFQS	area with substrate ENRYFQS	area with substrate ENSYFQS	area with substrate ENVYFQS	area with substrate ENWYFQS	area with substrate ENGYFQS	area with substrate ENNYFQS	area with substrate ENTYFQS	area with substrate ENMYFQS	area with substrate ENFYFQS	area with substrate ENKYFQS	area with substrate ENYYFQS
M122C	0.0587	0.0871		0.053		0.103		0.065	0.0579	0.0571			0.0574	0.0546				0.0695	0.0428
E108L	0.0362	0.0571	0.0734		0.0435	0.0648			0.0548	0.0574	0.0675						0.0583	0.0503	0.0546
E108C	0.0573		0.0439	0.0607	0.0371			0.0527	0.0616	0.0613	0.069		0.0562	0.0604	0.0558	0.0715	0.05		
E108H	0.0591	0.0569	0.0391	0.0585	0.0389	0.0729	0.0481	0.0483	0.042	0.049	0.0682	0.0464	0.0553	0.0415	0.0541	0.0636	0.0497	0.0439	0.0485
V78K	0.0457	0.0597	0.0593	0.0523	0.0506		0.0498	0.0437		0.0631	0.0604	0.0409		0.0636	0.034	0.0535	0.0512		0.0398
V78T	0.0448		0.044	0.0464	0.0582	0.105		0.0497	0.0423		0.0875						0.0622		
V78M	0.0556	0.0546	0.0482	0.0583			0.0928	0.0426	0.0519	0.054	0.0701		0.0537	0.063		0.0799	0.0622	0.0536	
S121C	0.0534	0.0594		0.079	0.0565	0.113				0.135	0.0812		0.0649		0.0631				
S121R	0.0643	0.0555	0.0622	0.0706	0.0582		0.0625	0.0628	0.0561	0.0591	0.0866	0.0472	0.0615	0.0659	0.0462	0.0709	0.0497	0.0635	0.06
F92P	0.0429	0.0517	0.0656	0.0575	0.0534	0.068	0.0613	0.0575		0.0575					0.0593			0.0522	
K98Y	0.0506	0.0523	0.0518	0.0521	0.0612		0.0537	0.059	0.0495	0.0682	0.0674		0.056	0.0678	0.0698		0.0537	0.064	
I86G	0.0287			0.0576		0.035	0.0385	0.0411	0.0247		0.0298				0.0425	0.0469	0.0445		
I86Y	0.0577	0.0538					0.0558	0.0549		0.062					0.0536		0.0645		
T115P	0.0531		0.069		0.0642	0.131	0.0888			0.0532				0.0535			0.0507		
T115D	0.0796	0.177	0.0514	0.0626	0.0722			0.0577		0.0622	0.0699	0.0499	0.0587	0.0568	0.0708		0.0374	0.0675	0.0676
T115S	0.0645		0.0617	0.0666	0.068	0.142	0.0741	0.0601			0.0848		0.0568		0.0605	0.0613	0.0733		0.0624
